The text below walks through data of ChEMBL document CHEMBL4888484, “Replenishing the malaria drug discovery pipeline: Screening and hit evaluation of the MMV Hit Generation Library 1 (HGL1) against asexual blood stage Plasmodium falciparum ,using a nano luciferase reporter read-out” (2022).

The whole screen tested about 150,000 compounds, of which about 540 (0.36%) showed an effect of 50% or more. The list shows a part of the results.

This assay concerns Plasmodium falciparum. The experiment in a line: Primary screen in NF54 nanoGlo assay, in single point, at 2uM, 72h; a lower Z score goes with more inhibition. The class given is functional, Erythrocyte. Conditions: timepoint 72 hour.
One may read the % Inhibition as the relative decrease from the control value, in per cent. Consider `CN1c2cccnc2CN(Cc2ccc(Cl)cc2)CC[C@H]1CO`, for which the “% Inhibition” value amounted to 0% and the Z score is on record as -0.03.

With `CC[C@H](C)n1nccc1NC(=O)c1ccc2nnnn2c1`, the “% Inhibition” value is -6% and the Z score turned out to be 0.87.

For the compound `COc1ccccc1N1CCN(C(=O)Cn2c(-c3ccc(F)cc3)nc(C)cc2=O)CC1`, the “% Inhibition” value is -11% and the Z score is listed as 0.97.

`CN1C(=O)CC(C(=O)NC2CCc3nccn3C2)C1c1cccnc1` (stereo not drawn): the “% Inhibition” value is reported as -1% and the Z score was found to be 0.11.

Consider `Cc1nc(C)c(-c2cccc(C(=O)N(CCO)Cc3nccs3)c2)s1`, for which the “% Inhibition” value is -17% and the Z score stood at 2.4.

Take `CC[C@]1(O)CCCN(C(=O)c2cncc(O)n2)C1`: the “% Inhibition” value was -10% and the Z score amounted to 1.14.

Turning to `O=C(CCN1CCCCC1)c1ccc2c(c1)OCCO2`, the “% Inhibition” value is -15% and the Z score was 1.34.

Take `CCCCn1nc(C(=O)Nc2cccc(-c3nccs3)c2)ccc1=O`: the “% Inhibition” value is listed as -8% and the Z score was found to be 1.3.

Take `COc1cc(Cl)c(C)cc1NC(=O)Cc1nnc(-c2cnccn2)o1`: the “% Inhibition” value is on record as -7% and the Z score was determined as 0.66.

On to `CC(C)c1nnsc1CN(C)CCC1(O)CCCC1`, for which the “% Inhibition” value is listed as -14% and the Z score is 3.02.

In the case of `CC(=O)N1CCC2(CC1)NC1(CCCC1)C(=O)N2CC1CC1`, the “% Inhibition” value is -18% and the Z score was 1.6.

Regarding `CCN1CCN([C@H](c2ccncc2)c2c(NC(=O)c3cccs3)sc(C)c2C)CC1`, the “% Inhibition” value was determined as 8% and the Z score is recorded as -1.61.

Regarding `N#C[C@]1(NC(=O)CN2CCC(=O)NC2=O)CCc2ccccc2C1`, the “% Inhibition” value is -5% and the Z score worked out at 0.76.

With `CN(CC1(CO)CCOCC1)C(=O)c1ccc2cccc(F)c2n1`, the “% Inhibition” value came to 6% and the Z score is listed as -0.75.

Turning to `CC(O)CN1CCN(S(=O)(=O)c2ccc3c(c2)OCCO3)C(C)C1` (stereo not drawn), the “% Inhibition” value was -13% and the Z score is 1.82.

Take `CCc1cc(-c2n[nH]c(C)c2-c2nnc(-c3ccccc3)s2)c(O)cc1O`: the “% Inhibition” value turned out to be 13% and the Z score is given as -1.74.

Take `O=C(N[C@@H]1CN(CCCc2ccccc2)C[C@H]1CO)c1cnccn1`: the “% Inhibition” value is -13% and the Z score was 2.15.

With `COc1ccc(-n2nc(C(=O)N3CCN(C(C)=O)CC3)c(=O)n(Cc3ccc(F)cc3)c2=O)cc1`, the “% Inhibition” value is -15% and the Z score is 1.49.

As for `CCCN1CCCN(c2ccc3nncn3n2)CC1=O`, the “% Inhibition” value is -13% and the Z score worked out at 2.12.

`CCCCN(CCCNC(=O)C[C@@H]1Nc2ccccc2NC1=O)Cc1ccccc1`: the “% Inhibition” value is -3% and the Z score worked out at 0.54.

With `CCn1cc(CN(C)CC2=CCCCC2)cn1`, the “% Inhibition” value is listed as -13% and the Z score came out at 2.23.

With `Cn1cnc(C(=O)N[C@H]2CCCC[C@@H]2F)n1`, the “% Inhibition” value is -10% and the Z score came out at 1.4.

As for `Cc1sc2ccccc2c1CNC[C@@H]1C[C@H](CO)N(C)[C@@H]1c1ccccc1F`, the “% Inhibition” value stood at 2% and the Z score is on record as -0.23.

Regarding `CC(C)(O)CN(C1CC1)S(=O)(=O)C1(C)CC1`, the “% Inhibition” value was 5% and the Z score is -0.98.
